# According to PubChem BioAssay AID485344 (National Center for Advancing Translational Sciences (NCATS), 2010):
# Screen size: about 340,000 compounds; about 6,900 (2%) were called active. Rule as the data show it: active = inhibition above about 30%; inactive = below that, where a call was filed. The entries are a selection whose mix differs from that of the whole data set. Where no call is shown, the source filed none.
# Target: D(2) dopamine receptor (Homo sapiens) (UniProt P14416)
# Assay: HTS Assay for Allosteric Antagonists of the Human D2 Dopamine Receptor: Primary Screen for Antagonists; also: 0% is about no effect
# Conditions: HEK293 TREx D2 cells, calcium flux, dopamine EC80; at 10 µM; stronger effect = higher value
# In short: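 Read-out: kinetic calcium fluorescence (1 cycle/s) in inducible HEK293 T-REx D2 cells after an EC80 dopamine addition that followed 180 s compound preincubation. Loss of the dopamine response indicates antagonism.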
# Sequence of UniProt P14416 (P14416 whole entry, looked up): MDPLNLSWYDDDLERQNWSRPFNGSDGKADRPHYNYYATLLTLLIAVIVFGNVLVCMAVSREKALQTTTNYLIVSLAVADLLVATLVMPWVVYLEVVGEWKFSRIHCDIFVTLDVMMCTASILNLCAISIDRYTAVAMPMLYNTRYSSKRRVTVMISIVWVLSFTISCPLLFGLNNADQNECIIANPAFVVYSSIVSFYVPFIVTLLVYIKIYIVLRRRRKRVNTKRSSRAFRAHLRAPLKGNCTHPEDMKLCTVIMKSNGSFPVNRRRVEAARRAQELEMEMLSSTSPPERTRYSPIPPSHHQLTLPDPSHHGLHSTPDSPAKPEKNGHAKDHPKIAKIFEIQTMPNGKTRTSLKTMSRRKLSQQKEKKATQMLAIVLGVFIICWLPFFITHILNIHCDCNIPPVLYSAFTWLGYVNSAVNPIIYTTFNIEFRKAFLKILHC
row,SMILES,inhibition
1,COc1ccc(-c2nc3ccccc3o2)cc1NC(=O)COc1c(C)cc(Cl)cc1Cl,-7.13%
2,COc1ccccc1N1CCN(CC(=O)c2c(C)[nH]c3cc(C)ccc23)CC1,active: 63.9%
3,CC(=O)Nc1ccc(C)cc1NC(C)=O,active: 34.8%
4,Cc1ccccc1-c1nc(CS(=O)(=O)CC(=O)Nc2c(C)cccc2C)c(C)o1,-11.9%
5,COc1ccc(-c2cc(C(C)=O)c(C)n2CCC(=O)Nc2cccc(C)c2C)cc1,16.7%
6,O=C(Cn1c2ncccc2c(=O)n1-c1ccccc1)Nc1cccc(C(F)(F)F)c1,1.87%
7,O=C(CSc1nc2ccccc2c2nc(-c3ccccc3)nn12)Nc1ccc(F)cc1,-2.49%
8,Cn1c(=O)oc2cc(NC(=O)CCl)ccc21,active: 31.9%
9,COc1ccc(N2C(=O)CS(=O)(=O)C23C(=O)N(Cc2ccccc2)c2ccccc23)cc1 (stereo unspecified),10.4%
10,COc1cccc(-c2nc(S(=O)(=O)c3ccc(C)cc3)c(NCc3ccccc3)o2)c1,3.7%
11,CCN1CCN(c2cc(C)c3cc(NC(=O)c4cc(OC)c(OC)c(OC)c4)ccc3n2)CC1,-4.01%
12,CCOc1ccc(-c2nc(CSCC(=O)NCCc3ccccc3)c(C)o2)cc1,-5.69%
13,Clc1cccc(N2CCN(c3nc4ccccc4c4nc(-c5ccccc5)nn34)CC2)c1,3.11%
14,Cn1c(=O)cc(SCC(=O)NCCc2ccc(Cl)cc2)c2cc(Cl)ccc21,19.3%
15,CCc1ccc2oc(C(=O)N(Cc3cccc(Cl)c3)Cc3ccco3)c(C)c2c1,-12.8%
16,Cc1cc(C)cc(NC(=O)Cn2c(=O)n(CCC(C)C)c(=O)c3cccnc32)c1,-26.9%
17,COc1cccc(CNC(=O)CCCn2c(=O)c3cccn3c3ccc(F)cc32)c1OC,15%
18,COC(=O)c1cc2oc(C)cc2n1CC(=O)Nc1ccc(OC)c(OC)c1,-0.197%
19,FC(F)(F)c1ccnc(N2CCN(Cc3cnc(-c4ccccc4)[nH]3)CC2)c1,active: 89.5%
20,COC(=O)c1ccc(NC(=O)CSc2nccn2Cc2ccc(Cl)cc2)cc1,10.8%
21,CCOc1ccc(-n2c(=O)c3c(C)c(C)sc3n(Cc3c(F)cccc3Cl)c2=O)cc1,-10.9%
22,COc1ccc(N2CCN(C(=O)CCc3nnc4n(C)c(=O)c5sccc5n34)CC2)cc1,-16.4%
23,CCCC(=O)Nc1nc2c(s1)CC(C(C)(C)C)CC2 (stereo unspecified),5.39%
24,CC1(C)N=C(c2ccc(F)cc2)C(=O)N1CC(=O)Nc1ccccc1Cl,2.9%

row,SMILES,inhibition
1,COc1ccc(-n2c(=O)c3ccc(C(=O)NCc4ccc(C)cc4)cc3n(Cc3ccc(F)cc3Cl)c2=O)cc1,7.62%
2,Cc1ccc(Cn2c3ccccc3c3cnn(CC(=O)N4CCCCCC4)c(=O)c32)cc1,4.21%
3,COc1ccc(-n2nc3c(c2NC(=O)C(=O)NCc2ccccc2)CSC3)cc1,17.1%
4,Cc1ccc(CN2C(=O)CC(c3ccc(Cl)cc3)c3c(C)nn(-c4nc(C)cc(C)n4)c32)cc1 (stereo unspecified),17.6%
5,CCC(=O)N1CCc2cc(S(=O)(=O)CCC(=O)Nc3ccc(C)cn3)ccc21,active: 64.4%
6,COc1cc(NC(=O)CN2C(=O)C(c3ccc(C)cc3)=NC23CCCCCC3)cc(OC)c1,1.7%
7,CC(=O)Nc1c(C)nn(-c2ccccc2)c1N1CCC(C(=O)Nc2ccc(Cl)cc2C)CC1,-7.18%
8,CC12C(=O)N(c3ccccc3C(=O)O)C(=O)C1C1C=CC2C1 (stereo unspecified),active: 36.2%
9,Cc1cc(O)c(C(c2ccccc2)N2CCN(c3ccccc3F)CC2)c(=O)n1Cc1ccco1 (stereo unspecified),-2.29%
10,O=C(c1ccco1)N1CCN(Cc2cccc(F)c2)CC1,active: 84.3%
11,CCC(=O)N1CCc2cc(Br)cc(S(=O)(=O)CCC(=O)NCc3ccc(C)cc3)c21,-5.95%
12,Cc1ccc(OCCCCN2CCc3ccccc3C2)c(C)c1,active: 75.9%
13,COc1ccc(CNC(=O)C(=O)Nc2ccccc2OC)cc1,-20.9%
14,COC(=O)c1sc(S(=O)(=O)N2CCN(c3ccc(OC)cc3)CC2)c(C(=O)OC)c1C,13.7%
15,COc1ccc(CNC(=O)c2ccc(NC(=O)N3CCCCc4ccccc43)cc2)c(OC)c1,-22.9%
16,Cc1cc(SCC(=O)NCc2ccccc2Cl)nc(=O)[nH]1,27.9%
17,Cc1cccc(-c2nc(C)c(CCNC(=O)C(=O)Nc3c(C)cc(C)cc3C)s2)c1,-14.1%
18,COc1ccc(-c2csc3nc(-c4ccc(F)cc4)oc(=O)c23)cc1OC,10.6%
19,O=C(c1cccc(C(=O)N(c2ccccn2)C2CCCCC2)c1)N(c1ccccn1)C1CCCCC1,active: 62.1%
20,Cc1cccc(C)c1NC(=O)CCS(=O)(=O)c1ccc2c(c1)n(C)c(=O)c(=O)n2C,-7.37%
21,Cc1ccc(-c2noc(CSc3nnc(C)n3-c3ccc(F)cc3)n2)cc1,0.675%
22,Cc1nnc2n1N=C(c1ccc(OC(F)F)cc1)C(C)S2 (stereo unspecified),active: 56.3%
23,Cc1ccc(CN2CCc3nc(N4CCN(c5ccccc5F)CC4)ncc3C2)s1,-6.56%
24,Cc1ccc2oc(=O)c3cc(C(=O)NCc4ccc(Cl)cc4)sc3c2c1,-8.7%

row,SMILES,inhibition
1,O=C(Nc1nc2ccccc2n1CCN1CCCCC1)C1CCCCC1,active: 41.6%
2,Cc1ccc(NC(=O)C2CCCN2S(=O)(=O)c2cccc3nsnc23)c(Br)c1 (stereo unspecified),-9.52%
3,O=C(NCc1ccccc1F)c1cc2ccccn2n1,-0.221%
4,CCOc1cccc(OCCOCCN(C)Cc2ccccc2)c1,active: 30.4%
5,CCN(CC)C(=O)Cn1c(=O)n(CCCCCC(=O)Nc2ccccc2)c(=O)c2sccc21,1.71%
6,COC(=O)c1ccccc1NC(=O)Cn1c(=O)cc(-c2ccccc2)c2c(C)nn(C)c21,-10.3%
7,CCOC(=O)c1sc2ncn(CC(=O)Nc3cc(C)cc(C)c3)c(=O)c2c1C,-1.76%
8,Cc1ccc(C)c(Nc2nn3c(=O)c4ccc(C(=O)N(C)Cc5ccccc5)cc4nc3s2)c1,-8.88%
9,Cc1ccccc1C(=O)Nc1cccc(C(=O)OCc2cc(=O)n3c(C)csc3n2)c1,-6.94%
10,COc1ccc(CNC(=O)c2ccc(NC(=O)N3CCSc4ncccc43)cc2)c(OC)c1,5.73%
11,Cc1nn(Cc2ccccc2Cl)c2sc(C(=O)Nc3nccs3)cc12,active: 38.4%
12,CCOc1ccc2oc(=O)cc(CN3CCN(C(=O)c4cccc(Cl)c4)CC3)c2c1,8.23%
13,COc1ccc(NC(=O)c2ncoc2-c2ccco2)cc1Cl,-1.69%
14,CC(CNC(=O)c1ccc2nc(CCc3ccccc3)oc2c1)c1ccccc1 (stereo unspecified),16.1%
15,CCOC(=O)c1cccc(NC(=O)C2CCN(S(=O)(=O)c3c(C)noc3/C=C/c3ccc(C)cc3)CC2)c1,20.2%
16,COc1cc(NC(=O)c2nc(-c3ccc(Cl)cc3)n3c2CCCCC3)cc(OC)c1OC,-12.5%
17,COc1ccc(CNC(=O)c2cc(C3CC3)nc3c2c(C)nn3-c2cccc(Cl)c2C)cc1,8.88%
18,CCn1c(=O)n(-c2ccc3c(c2)OCO3)c2nc(-c3cc(OC)ccc3OC)nc(C(N)=O)c21,14.9%
19,COc1ccc(CNC(=O)Cn2ccc3cc(S(=O)(=O)N4CCCC4)ccc32)c(OC)c1,-0.934%
20,Cc1cccc(C(=O)Nc2ccc3nc(SCC(=O)N4CCc5ccccc54)sc3c2)c1,-6.91%
21,COC(=O)c1ccccc1NC(=O)c1sc2nc(C)cc(C)c2c1NC(=O)c1ccccc1Cl,6.23%
22,Cc1cc(/C=C(\C#N)C(=O)Nc2ccccc2)c(C)n1-c1ccc(F)cc1,-22.9%
23,COc1ccc(NC(=O)c2cc(C(C)=O)n3ccccc23)cc1Cl,5.76%
24,COc1ccc2c(CNCc3cccs3)c(C(=O)O)n(Cc3cccc(F)c3)c2c1,2.1%

row,SMILES,inhibition
1,Cc1ccc(C(=O)Nc2cccc(O)c2)cc1S(=O)(=O)N1CCCCCC1,-24%
2,CCN(CC)CCCNC(=O)c1cn(CC)c2ccc(S(=O)(=O)N3CCc4ccccc4C3)cc2c1=O,15.6%
3,CCCC(=O)Nc1ccc2oc(-c3cncc(Br)c3)nc2c1,active: 39%
4,O=S(=O)(c1ccccc1)c1nc(-c2ccc(Cl)cc2Cl)oc1N1CCCCC1,0.905%
5,Cc1ccc(CN2CCN(C3CCN(C(=O)c4ccccc4)CC3)C(=O)C2=O)cc1,4.3%
6,COc1ccc(C)cc1NC(=O)Cn1c(=O)cc(C)c2c(C)nn(C)c21,5.75%
7,Cc1nc(-c2ccc(Cl)cc2)sc1CCNC(=O)Cc1ccc(F)cc1,6.32%
8,O=C(CNC(=O)c1ccccc1F)OCc1cc(=O)n2ccsc2n1,-2.1%
9,CCN(CC)C(=O)Cn1c(=O)n(-c2ccc(OC)cc2OC)c(=O)c2c(C)c(C(=O)N(CC)CC)sc21,-24.2%
10,COc1ccc(NC(=O)c2c(-c3ccc(C)cc3)nnc3ccccc23)cc1Cl,4.65%
11,COc1ccccc1C(=O)Nc1nnc(SCc2cc(=O)c3cc(Cl)ccc3[nH]2)s1,-5.17%
12,COc1ccc(OC)c(NC(=O)Cn2ccc3ccccc3c2=O)c1,-7.64%
13,Cc1ccc(C)c(N2CCN(C(=O)C3CCCN(S(=O)(=O)c4cccc5nsnc45)C3)CC2)c1 (stereo unspecified),10.8%
14,COc1cccc(CNC(=O)c2ccc3c(c2)nnn3C2CCCC2)c1,2.75%
15,Cc1ccc(N(CC(=O)NCc2ccc(F)cc2)S(=O)(=O)c2c(C)nn(C)c2C)cc1,-3.44%
16,CCCCSCCCNC(=O)c1cn(C)c2ccc(S(=O)(=O)N3CCCCC3)cc2c1=O,-15.9%
17,Cc1ccc(-n2cc(-c3ccccc3)nc2S(=O)(=O)CC(=O)Nc2ccc(F)cc2)cc1,13.5%
18,COc1ccc(-n2nc(C(=O)Nc3ccc(C)cn3)c3c4ccccc4n(C)c3c2=O)cc1,5.39%
19,CNS(=O)(=O)c1cn(CC(=O)Nc2cccc(OC)c2)cc1S(=O)(=O)NC,-0.683%
20,Cc1c(Cl)cccc1NC(=O)c1noc2c1CCCC2,15.4%
21,Cc1ccc(NC(=O)CSc2ncn[nH]2)cc1C,-13.2%
22,CCOc1ccccc1NC(=O)CCc1c(C)nn(-c2ccc(N3CCOCC3)nn2)c1C,-2.49%
23,CCOC(=O)Cn1c(=O)n(CC2CCCO2)c2nc(-c3cccc(C)c3)nc(C(N)=O)c21 (stereo unspecified),-12.4%
24,COC(=O)c1ccc(-n2c(CCC(=O)O)ccc2-c2ccc(C)cc2)cc1,8.53%
